Assay results as given in PubChem BioAssay (NCATS).
Inconclusive means that the source gave no clear call. Such entries were picked first, then a sample of the others. For part of these data: Where the call is inconclusive, the potency comes from a doubtful curve fit. Calls of active or inactive are those of the source. Unless noted, calls come from the whole dose curve; as a rule, active = well fitted curve in the direction sought with a large enough effect; inconclusive = small, poorly fitted or top-dose-only effect, or another doubt; inactive = no such curve, though single readings can be large; an effect the other way counts as inactive or inconclusive.

Experiments:
[1] = biological target: Aldehyde dehydrogenase, mitochondrial (Homo sapiens) (UniProt P05091); assay: qHTS for Inhibitors of the Aldehyde Dehydrogenase Family (ALDH2) Confirmatory screens (AID 2061303; active = well fitted inhibition curve with a large enough effect; inconclusive = small, poorly fitted or top-dose-only effect; inactive = no such curve, though single readings can be large or run the other way; title and protocol of this record describe different tests; note: nearly all actives have a fitted effect of over 45% in size); conditions: ALDH inhibition qHTS; activity change, negative = inhibition: at 45.4 µM (top of the series)
[2] = qHTS for Inhibitors of the Aldehyde Dehydrogenase Family (ALDH1A2, ALDH1A3, ALDH2, ALDH3A1) (AID 2061307); conditions: ALDH inhibition qHTS; activity change, negative = inhibition: at 50.3 µM (top of the series) unless noted; note: test system not described further here; nearly all actives have a fitted effect of over 50% in size
[3] = biological target: Aldehyde dehydrogenase, mitochondrial (Homo sapiens) (UniProt P05091); assay: qHTS for Inhibitors of the Aldehyde Dehydrogenase Family (ALDH2) Primary screen (AID 2061308); note: nearly all actives have a fitted effect of over 55% in size
[4] = biological target: Retinaldehyde dehydrogenase 3 (Homo sapiens) (UniProt P47895); assay: qHTS for Inhibitors of the Aldehyde Dehydrogenase Family (ALDH1A3) Confirmatory screens (AID 2061311); conditions: activity change, negative = inhibition: at 46 µM (top of the series); note: nearly all actives have a fitted effect of over 60% in size
[5] = biological target: Retinal dehydrogenase 2 (Homo sapiens) (UniProt O94788); assay: qHTS for Inhibitors of the Aldehyde Dehydrogenase Family (ALDH1A2) Confirmation screens (AID 2061314); conditions: activity, negative = inhibition: at 45.9 µM (top of the series) unless noted; note: nearly all actives have a fitted effect of over 65% in size
[6] = biological target: Aldehyde dehydrogenase 1A1 (Homo sapiens) (UniProt P00352); assay: qHTS for Inhibitors of the Aldehyde Dehydrogenase Family (ALDH1A1) Confirmatory screens (AID 2061316); conditions: activity change, negative = inhibition: at 47.3 µM (top of the series); note: nearly all actives have a fitted effect of over 65% in size
Potency is the fitted concentration of half-maximal effect; tags give direction and shape of the fitted curve.

In the case of FC(F)(F)c1ccccc1-c1nc(NCc2ccc(-c3ccc(Cl)c(Cl)c3)cc2)c2ccccc2n1, the Potency [1] is reported as inconclusive: 28.3 µM [inhibitor, single point], the Potency [2] is reported as inconclusive: 28.3 µM [inhibitor, single point] and the Potency [3] is reported as inconclusive: 20 µM [inhibitor, partial curve, poor fit]. For the same molecule, the Potency [4] was inconclusive: 17.9 µM [inhibitor, partial curve], the Potency [5] was inconclusive: 25.2 µM [inhibitor, partial curve] and the Potency [6] was active: 20.1 µM.

For N#Cc1cccc(OC2=NS(=O)(=O)c3ccccc32)c1, the Potency [1] was inconclusive: 12.7 µM [inhibitor, partial curve], the Potency [2] was inconclusive: 0.504 µM [inhibitor, partial curve, poor fit] and the Potency [3] was inconclusive: 17.8 µM [inhibitor, partial curve]. The Potency [4] was active: 12.7 µM, the Potency [5] was inconclusive: 12.7 µM [inhibitor, partial curve] and the Potency [6] was active: 5.04 µM.

For O=C(O)c1ccc(-n2cccc2/C=C2\SC(=O)N(Cc3cccc(Cl)c3)C2=O)cc1, the Potency [1] was active: 11.3 µM, the Potency [2] was active: 1.79 µM and the Potency [3] was inconclusive: 12.6 µM [inhibitor, partial curve]. For the same molecule, the Potency [4] was inconclusive: 12.7 µM [inhibitor, partial curve], the Potency [5] was inconclusive: 14.2 µM [inhibitor, partial curve] and the Potency [6] was active: 7.98 µM.

For CCOC(=O)C1=C(N)Oc2ccc(Cl)cc2C1C(C#N)C(=O)OCC (centres undefined), the Potency [1] was “inactive”, the Potency [2] was inconclusive: 20.1 µM [inhibitor, partial curve] and the Potency [3] was “inactive”. The Potency [4] was active: 12.7 µM, the Potency [5] was inconclusive: 12.7 µM [inhibitor, partial curve] and the Potency [6] was “inactive”.
